# PubChem BioAssay
# Inconclusive results, whose numbers are uncertain, are shown with a selection of clear calls. Calls of active or inactive are those of the source.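 The calls were made as follows, unless noted: active = RAM network inhibition above 8.4% in each of two replicates, 3 SD over the compound average; inconclusive = above 8.4% inhibition in only one replicate; inactive = 8.4% inhibition or less in each replicate.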
# What was measured:
# [1] = H69AR cell proliferation blockers – human, duplicate replicates, primary screen (AID 580;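 active = viability at or under a set limit in both replicates, limit being median viability minus 3 SD, cut at about 48% in these data, passing the limit was not always enough; inconclusive = at or under the limit in just one replicate; inactive = at or above the limit in both replicates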;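 also: 100% = mean luminescence of untreated wells and 0% = no signal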); conditions: H69AR lung tumor cells viability, ATP luminescence, 72 h; at 10 µM; active compounds read low
# [2] = RAM signaling pathway blockade in yeast – S. cerevisiae, Pdr1DBD-CYC8 efflux-inhibited sensitized strain, primary screen (AID 1298);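 also: 0% = DMSO untreated cells without growth and 100% = 10 µM 1-NA-PP1 full growth; higher means more yeast growth rescued from 5-FOA killing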; conditions: S. cerevisiae cbk1-as DSE1-URA3 strain, 5-FOA growth OD615, 2 d; at 50 µM; active compounds read high
# [3] = S. cerevisiae growth inhibition in restrictive medium, OD615, pilot screen, restrictive growth control, yeast lifespan reduction project (AID 706;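 active = growth inhibition above a set limit, 3 SD over mean compound inhibition, in both replicates, cut at about 43% in these data; inconclusive = above the limit in only one replicate; inactive = at or below the limit in both replicates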;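 also: modified DeaD lifespan yeast strain shifted to restrictive glucose medium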); conditions: OD615, 48 h, at 10 µM, active compounds read high
# Procedure, shortened: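 Buffer or medium: restrictive glucose medium (CSMM-D); test system: modified S. cerevisiae; doses: single dose of 10 µM compound final, 0.25% DMSO; schedule: 48 h compound exposure at 30 °C; detection: absorbance (optical density) measured at 615 nm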
# [4] = viability of PTEN-null HCT116 cells – cell-based, HCT116 clonal line, CellTiter-Glo, pilot screen (AID 824;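 active = viability at or below 27.92% in each of two runs, the all-compound median minus 4 SD; inconclusive = no clear call, values can overlap the other calls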;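 also: 0% = 20 µM Hyamine control and 100% = vehicle cell control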); conditions: HCT116 PTEN-deleted viability, 60 h, at 10 µM, active compounds read low
# [5] = S. cerevisiae growth inhibition in permissive medium (OD615), pilot counter-assay for S. cerevisiae lifespan shortening project, permissive growth control (AID 705;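 active = growth inhibition above 25% in both replicates, a cutoff set 3 SD above the mean; inconclusive = above 25% in only one replicate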); conditions: OD615, 24 h, at 10 µM, active compounds read high
# Procedure, shortened: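 Material: engineered DeaD yeast; Compound: one dose 10 µM, DMSO 0.25% final; Detection: absorbance (optical density) at 615 nm; Buffer or medium: permissive raffinose/galactose medium; Timing: 24 h exposure, 30 °C.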
# [6] = viability of HCT116 without oncogenic beta-catenin – human colon tumor cells, pilot screen (AID 823;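 active = cell viability at or below a set limit in both duplicate runs, the limit being the all-compound median minus 4 SD, cut at about 23% in these data, passing the limit was not always enough; inconclusive = no clear call, values can overlap the other calls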;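 also: 0% = wells killed by 20 µM Hyamine and 100% = untreated DMSO cell wells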); conditions: HCT116 beta-catenin knockout viability, CellTiter-Glo, 60 h; at 10 µM; active compounds read low
# [7] = HUVEC growth inhibition – cell-based, human, primary screen (AID 575;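 active = viability at or below 30% in both replicate assays; inconclusive = viability at or below 30% in just one of the two assays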;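 also: 100% = median of untreated cell wells with 0.1% DMSO on each plate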); conditions: HUVEC proliferation, CellTiter-Glo luminescence, 72 h; at 10 µM; active compounds read low
# Procedure, shortened: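 Test system: primary human umbilical vein endothelial cells. Quantity: 1250 cells/well. Compound: single 10 µM dose, 0.1% DMSO, from 5x medium stock. Timing: 72 h treatment at 37 °C. Detection: ATP-based CellTiter-Glo luminescent read. Benchmarks: vehicle and MePR control wells. Format: 384-well plates coated with collagen.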
# [8] = doxorubicin toxicity protection in MRP-1 cells – H69AR cells, CellTiter-Glo, duplicate, MRP-1 activator project, pilot screen (AID 807;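 active = viability increase at or above a cutoff of the median across tested compounds plus 3 SD, cut at about 8.5% in these data, passing the limit was not always enough; inconclusive = some gains above the cutoff, reason not given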;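 also: compound pretreatment 18-22 h then 72 h combined with doxorubicin; 0% = doxorubicin alone and 100% = vehicle without doxorubicin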); conditions: H69AR viability with doxorubicin, CellTiter-Glo luminescence; at 10 µM; active compounds read high
smiles,measurement,setting,value
CC1CC(C)CN(c2ncnc3c2cnn3-c2ccc(Cl)cc2)C1 (stereo not given),viability,[1],inactive: 80.6%
same,RAM network inhibition,[2],inconclusive: 10.6%
Cc1csc(NC(=O)CSc2nnc(Cc3cccn3C)n2-c2ccc(F)cc2)n1,RAM network inhibition,[2],inconclusive: 14.4%
CCCc1nc2sc3c(SCC(=O)NCc4ccco4)ncnc3c2c2c1CCC2,growth inhibition,[3],inconclusive: 37.5%
same,viability,[4],inconclusive: 58%
same,RAM network inhibition,[2],inactive: 4.21%
C=CCSc1nnc2c(n1)OC=Nc1ccccc1-2,RAM network inhibition,[2],inconclusive: 9.21%
COc1ccc(NC(=O)CC2SC(=Nc3ccccc3)NC2=O)c(OC)c1 (stereo not given),growth inhibition,[5],inconclusive: 45.6%
same,growth inhibition,[3],inconclusive: 41.2%
same,RAM network inhibition,[2],inactive: 7.78%
N#CC1=C2SCN(c3ccccc3)CN2C(=O)CC1c1ccccc1Cl (stereo not given),growth inhibition,[3],inconclusive: 22.9%
same,viability,[6],inactive: 97.2%
same,RAM network inhibition,[2],inconclusive: 10.8%
N#Cc1ccccc1Cn1c(=O)n(Cc2ccc(C(=O)NCc3ccco3)cc2)c(=O)c2sccc21,viability,[7],inconclusive: 41.6%
same,growth inhibition,[5],inconclusive: 9.56%
same,RAM network inhibition,[2],inconclusive: 13.3%
NC(=O)CSc1nnc(Cn2c(=O)sc3ccccc32)n1-c1ccccc1,RAM network inhibition,[2],inactive: 2.47%
O=C(CS(=O)(=O)c1cn(Cc2ccc(F)cc2)c2ccccc12)N1CCCCC1,viability,[7],inconclusive: 50%
same,RAM network inhibition,[2],inactive: 5%
O=C(COC(=O)c1cnccn1)c1ccc(OC(=O)c2ccccc2)cc1,RAM network inhibition,[2],inconclusive: 25.6%
CCN(c1ccccc1)c1cc(C)nc2nc(C)nn12,RAM network inhibition,[2],inactive: 4.74%
COc1ccc(NC(=O)c2nnn(Cc3ccc(SC)cc3)c2N)c(OC)c1,RAM network inhibition,[2],inconclusive: 11.4%
CCn1c(C(C)NC(=O)c2cccc(C)c2)nc2ccccc21 (stereo not given),RAM network inhibition,[2],inconclusive: 9.86%
Cc1onc(-c2ccccc2Cl)c1C(=O)NCCn1c(C)cc2ccccc21,viability,[1],inactive: 83.3%
same,RAM network inhibition,[2],inconclusive: 13.5%
OC(CN1CCN(c2ccccc2)CC1)c1ccc2c(c1)CCN2 (stereo not given),viability,[7],inactive: 95.3%
same,RAM network inhibition,[2],inconclusive: 17.1%
Cc1ccc(-c2cc(C(F)F)nc(NCC3CCCO3)n2)cc1 (stereo not given),viability,[7],inconclusive: 48%
same,viability,[1],inactive: 100%
same,RAM network inhibition,[2],inconclusive: 13.4%
COC(=O)c1ccc(C)c(NC(=O)CN(c2cc(OC)ccc2OC)S(C)(=O)=O)c1,RAM network inhibition,[2],inconclusive: 8.58%
COc1ccc(-c2n[nH]c(C)c2-c2cnn(-c3ccccc3)c2)c(O)c1,RAM network inhibition,[2],inconclusive: 36.6%
O=C(NC1CCCc2ccccc21)C1CCN(c2nnc(-n3cccc3)s2)CC1 (stereo not given),viability,[7],inconclusive: 34.1%
same,RAM network inhibition,[2],inconclusive: 38%
CC(C)CCSc1nc2c(c(=O)[nH]c(=O)n2C)n1CCCc1ccccc1,viability,[1],inconclusive: 50%
same,viability,[6],inactive: 68.8%
same,viability,[4],inactive: 59.1%
same,RAM network inhibition,[2],inactive: 9.02%
C=CCSC1=N/C(=C\c2ccc3c(c2)OCO3)C(=O)S1,RAM network inhibition,[2],inactive: 7.07%
CN1CCc2c(sc3c2C(=O)NC(c2cccc(OC(=O)c4cccs4)c2)N3)C1 (stereo not given),RAM network inhibition,[2],inactive: 4.47%
COc1cc(OC)c(NC(=O)CS(=O)(=O)Cc2nc(-c3ccc(C)cc3)oc2C)cc1Cl,RAM network inhibition,[2],inconclusive: 11.3%
CC(=O)c1ccc(NC(=O)CSc2nnc(Cn3c(=O)sc4ccccc43)n2C)cc1,growth inhibition,[3],inactive: 14.4%
same,RAM network inhibition,[2],inactive: 3.42%
COC(=O)CSCc1nc2ccccc2[nH]c1=O,growth inhibition,[5],inconclusive: 21.2%
same,growth inhibition,[3],inconclusive: 46.5%
same,RAM network inhibition,[2],inactive: 1.09%
COc1ccccc1OCCSc1nnnn1-c1ccc(C)cc1,RAM network inhibition,[2],inconclusive: 14.2%
O=C(c1ccc(CNc2c(N3CCCC3)c(=O)c2=O)cc1)N1CCc2ccccc2C1,viability,[7],inactive: 104%
same,RAM network inhibition,[2],inactive: 0.72%
CCOc1ccccc1N1C(=O)c2ccc(C(=O)Nc3cccnc3)cc2C1=O,viability,[1],inactive: 102%
same,RAM network inhibition,[2],inconclusive: 30.1%
Cc1cc(NC(=O)c2noc3c2CCc2ccccc2-3)n(-c2ccccc2)n1,RAM network inhibition,[2],inconclusive: 9.93%
CC1=C(C(=O)OCC(C)C)C(c2cc3c(cc2Br)OCO3)NC(=O)N1C (stereo not given),viability,[7],inconclusive: 33.8%
same,RAM network inhibition,[2],inconclusive: 13%
O=C(NCc1nnc(SCC(=O)N2CCC(Cc3ccccc3)CC2)o1)c1ccccc1F,viability,[7],inactive: 74.5%
same,RAM network inhibition,[2],inconclusive: 14.4%
CC1=C(C(=O)OC2CCCCCC2)C(c2ccc(C)o2)C2=C(CCCC2=O)N1 (stereo not given),viability,[1],inactive: 97.2%
same,RAM network inhibition,[2],inactive: 1.63%
CCOC(=O)c1ccccc1NC1c2ccccc2C(=O)N1C1CCN(C(=O)OCC)CC1 (stereo not given),growth inhibition,[3],inactive: 4.88%
same,viability increase,[8],inactive: -7.16%
same,RAM network inhibition,[2],inconclusive: 8.54%
O=C(c1ccc(Br)o1)N1CCN(c2ccc3nnc(-c4ccccc4)n3n2)CC1,growth inhibition,[5],inconclusive: 19.1%
same,RAM network inhibition,[2],inconclusive: 23.5%
Cc1cc(C)c(S(=O)(=O)Nc2ccc(OCC(=O)O)cc2)c(C)c1,growth inhibition,[3],inactive: -3.2%
same,viability,[6],inactive: 93.7%
same,RAM network inhibition,[2],inactive: -0.63%
Fc1ccc(Br)cc1C1C=C(c2cccnc2)Nc2ncnn21 (stereo not given),growth inhibition,[3],active: 46.9%
same,viability,[4],inconclusive: 31.6%
same,RAM network inhibition,[2],active: 21.7%
O=C(c1cnn2ccccc12)N1CCCc2ccccc21,RAM network inhibition,[2],inconclusive: 8.3%
COc1ccc(-n2ncc3c(N4CCN(c5cccc(C)c5C)CC4)ncnc32)cc1,viability,[7],active: 11.3%
same,viability,[1],active: 27.1%
same,viability,[6],inconclusive: 24.4%
same,viability,[4],inconclusive: 31.5%
same,RAM network inhibition,[2],inactive: 7.15%
Cc1cccc(C)c1OCc1nnc(SCC(=O)Nc2nccs2)o1,RAM network inhibition,[2],inconclusive: 11.3%
CCCCn1c(Oc2ccc(C(=O)OC)cc2)nc2c1c(=O)n(C)c(=O)n2C,viability,[6],inactive: 84.1%
same,RAM network inhibition,[2],inconclusive: 10.1%
Brc1ccccc1-c1nnc(CSc2nnc3sc4ccccc4n23)o1,viability,[6],inactive: 96.1%
same,RAM network inhibition,[2],inconclusive: 12.8%
C=C(C)Cn1c(SCC(=O)O)nnc1-c1ccc(C(C)(C)C)cc1,viability,[6],inconclusive: 109%
same,RAM network inhibition,[2],inconclusive: 9.25%
COc1ccc(Nc2nc(N)nc(CN3CCC(Cc4ccccc4)CC3)n2)cc1,viability,[6],inconclusive: 21%
same,RAM network inhibition,[2],inconclusive: 8.48%
CCCC(=O)Nc1cccc(C(=O)Nc2nccs2)c1,viability,[6],inconclusive: 96.3%
same,RAM network inhibition,[2],inactive: 0.41%
Cc1ccc(S(=O)(=O)N2CCN(C(=O)CCC(=O)N3CCc4ccccc43)CC2)cc1,viability,[6],inconclusive: 93.2%
same,RAM network inhibition,[2],inactive: 2.05%
O=C(O)c1ccc(CSc2nnc(COc3ccc(Cl)cc3Cl)o2)cc1,viability,[6],inactive: 103%
same,RAM network inhibition,[2],inconclusive: 12%
Cc1noc(/C=C/N(C)C)c1S(=O)(=O)N1CCCC(C(=O)NCc2cccs2)C1 (stereo not given),viability increase,[8],active: 10.6%
same,RAM network inhibition,[2],inconclusive: 11.9%
Cc1ccc(S(=O)(=O)N2CCCC(C(=O)N(Cc3cccs3)C3CC3)C2)cc1 (stereo not given),viability,[6],inactive: 61.3%
same,RAM network inhibition,[2],inactive: 7.4%
COc1ccc(OC)c(NC(=O)CCNS(=O)(=O)c2cccs2)c1,viability,[6],inconclusive: 108%
same,RAM network inhibition,[2],inconclusive: 8.83%
Cc1ccc(Cl)cc1N1CCN(C(=O)CCS(=O)(=O)c2cccc3nonc23)CC1,viability,[6],inactive: 79.5%
same,RAM network inhibition,[2],inconclusive: 11.2%
CCNC(=O)CCn1nc(-c2ccc(Cl)cc2)c2ccccc2c1=O,viability increase,[8],inactive: -5.74%
same,viability,[6],inactive: 49.5%
same,viability,[4],inconclusive: 34.1%
same,RAM network inhibition,[2],inconclusive: 10.4%
Cc1ccc(Cl)cc1N1CCN(C(=O)c2cc3c(=O)n(C)c4ccccc4c3n2C)CC1,viability increase,[8],inconclusive: 3.48%
same,viability,[6],active: 20.4%
same,viability,[4],active: 23.5%
same,RAM network inhibition,[2],inactive: 2.44%
Cc1cc(C)n2c(SCC#N)nnc2n1,viability,[6],inactive: 103%
same,RAM network inhibition,[2],inactive: 3.94%
CSc1nnc2n(-c3ccc(C)cc3)c(=O)c3c4c(sc3n12)COC(C(C)C)C4 (stereo not given),viability,[6],inactive: 37.3%
same,RAM network inhibition,[2],inactive: 7.91%
c1coc(CNc2c3c(nc4ncnn24)CCCC3)c1,viability,[6],inconclusive: 106%
same,RAM network inhibition,[2],inactive: 1.39%
N#CCCN1CCN(C(=S)c2ccc(-c3cccc(Cl)c3)o2)CC1,viability,[6],inactive: 76.9%
same,RAM network inhibition,[2],inconclusive: 10.5%
COc1ccc(-c2cc(CCCC(=O)NCc3ccccn3)no2)cc1,viability increase,[8],inactive: -1.34%
same,RAM network inhibition,[2],inconclusive: 8.94%
COc1ccc(OCCn2c(NC(=O)c3ccco3)nc3ccccc32)cc1,viability,[6],inactive: 56.9%
same,RAM network inhibition,[2],inconclusive: 10%
CCOc1ccc(NC(=O)C2CSC(c3ccncc3)=N2)cc1 (stereo not given),viability,[6],inactive: 98.3%
same,RAM network inhibition,[2],inconclusive: 21.6%
CCN(CC)S(=O)(=O)c1cc(-c2nnc(-c3ccc(Br)cc3)o2)ccc1Cl,viability,[6],inconclusive: 22.2%
same,RAM network inhibition,[2],inconclusive: 12.9%
CCCOC(=O)c1ccc(NC(=O)CCC(=O)OCC)cc1,viability increase,[8],inactive: -0.37%
same,RAM network inhibition,[2],inconclusive: 11.4%
CCOC(=O)c1ccccc1NC1c2ccccc2C(=O)N1c1ccc(C)cn1 (stereo not given),viability,[6],inactive: 72.9%
same,RAM network inhibition,[2],inconclusive: 11.3%
Brc1ccc(Oc2nnnn2-c2ccccc2)cc1,viability,[6],inactive: 95.3%
same,RAM network inhibition,[2],inconclusive: 11%
c1ccc(CNc2ncnc3nc[nH]c23)nc1,viability,[6],inactive: 102%
same,RAM network inhibition,[2],inconclusive: 10.1%
Cc1cc(NCc2ccccc2)nc(-c2ccccc2O)n1,viability,[6],inactive: 69.5%
same,RAM network inhibition,[2],inactive: 0.61%
Cc1c(/C=N/n2cnnc2)c2ccccc2n1CCOc1ccc(Cl)cc1,viability,[6],inconclusive: 91.9%
same,RAM network inhibition,[2],inconclusive: 17.9%
Cn1cccc1Cc1nnc(SCC(=O)N2CCOCC2)n1-c1ccc(F)cc1,viability,[6],inactive: 102%
same,RAM network inhibition,[2],inconclusive: 10.8%
CCCCN(C)CCCNC(=O)Cn1c(=O)sc2ccccc21,viability,[6],inconclusive: 102%
same,RAM network inhibition,[2],inconclusive: 12.4%
COc1cc(C2CC(=O)c3c([nH]c(C(=O)OCCOC(C)C)c3C)C2)cc(OC)c1OC (stereo not given),viability,[6],inconclusive: 26.8%
same,RAM network inhibition,[2],inconclusive: 8.86%
